PubChem BioAssay AID686978 (National Center for Advancing Translational Sciences (NCATS), 2013)
Among all 420,000 compounds or so, about 64,000 (15%) were called active. This list was built around the results that the source calls inconclusive (neither active nor inactive); the mix of calls is not that of the screen. Calls follow the shape of the dose curve; as a rule, active = well fitted inhibition curve with a large enough effect; inconclusive = small, poorly fitted or top-dose-only effect; inactive = flat fitted curve, though single readings scatter. No potency is given beside an inconclusive call; the fits are too rough.

experiment: qHTS for Inhibitors of human tyrosyl-DNA phosphodiesterase 1 (TDP1): qHTS in cells in absence of CPT; conditions: DT40 Tdp1-/- hTDP1 cells, no CPT, ATP luminescence, 48 h; activity change, negative = growth inhibition: at 46.2 µM (top of the series) unless noted; also: nearly all actives have a fitted effect of over 55% in size
In short: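 Seeded 400 DT40-hTDP1 cells/well (vehicle DMSO, no 20 nM CPT); pinned compounds; ≥48 hr at 37 °C; CellTiter-Glo luminescence as viability measure.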
% is scaled to controls: 0 for no effect and ±100 for the full control effect; potency is read from the fitted curve at half-maximal effect; tags tell the direction and shape of the fitted curve.

Compound | Potency | activity change, negative = growth inhibition
Cc1ccc(S(=O)(=O)NC(c2ccccc2)C(C)C(=O)n2nc(C)cc2C)cc1 (stereo not drawn) | inconclusive [inhibitor, single point] | 
Clc1ccc(OCc2nnnn2-c2ccccc2)cc1 | inconclusive [inhibitor, single point] | 
CC(=O)c1ccc(NC(=O)CSc2cn(CC(=O)N(C(C)C)C(C)C)c3ccccc23)cc1 | active: 14.6 µM | 
O=C(NCCCN1CCCC1)c1ccc2c(c1)N(Cc1ccccc1F)C(=O)c1ccccc1S2=O (stereo not drawn) | inconclusive [inhibitor, partial curve] | 
Cc1cc(S(=O)(=O)N2CCN(c3ccccc3O)CC2)c(C)s1 | inconclusive [inhibitor, partial curve, poor fit] | 
O=S(=O)(c1ccc(Br)cc1)N1CCN(c2nc(-c3ccccc3)nc3ccccc23)CC1 | inconclusive [inhibitor, single point] | 
Cc1ccc(CN2CC(C(=O)N3CC=C(c4ccccc4)CC3)CC2=O)cc1 (stereo not drawn) |  | inconclusive: -35.4% [inhibitor]
COC(=O)CCCC(=O)NCC1(N(C)Cc2ccccc2)Cc2ccccc2C1 | inconclusive [inhibitor, single point] | 
CCOC(=O)c1c(C)n(C)c2ccc(OC)c(NC(=O)CN3CCC(C(=O)OCC)CC3)c12 | inconclusive [inhibitor, single point] | 
CC(=O)C(=Cc1cn(-c2ccccc2)nc1-c1ccccc1)C(C)=O | inconclusive [inhibitor, single point] | 
COc1ccc(OC)c(S(=O)(=O)N2CCC(C(=O)NCc3ccccc3OC)CC2)c1 |  | inactive: -22.5%
CS(=O)(=O)Nc1cccc(-c2cnc3ccccc3n2)c1 | active: 20.6 µM | 
CCCOc1cccc(C2c3c(-c4ccccc4O)n[nH]c3C(=O)N2Cc2ccco2)c1 (stereo not drawn) | inconclusive [inhibitor, single point] | 
CC(C)CCn1c(Oc2ccccc2F)nc2c1c(=O)n(C)c(=O)n2C | inconclusive [inhibitor, single point] | 
Cc1ccc(C(=O)N/C(=C\c2ccc(Br)cc2)c2nc(=S)[nH][nH]2)cc1 | inconclusive [inhibitor, single point] | 
C=C[C@@H]1c2cc(C)ccc2N(S(=O)(=O)c2ccc(C)cc2)[C@H](c2ccccc2)C1(C#N)S(=O)(=O)c1ccccc1 (stereo partly drawn) | inconclusive [inhibitor, partial curve] | 
COc1cccc(/C=N/n2c(COc3ccccc3)n[nH]c2=S)c1 |  | inactive: -25.7%
CC(c1ccccc1)N1C(=O)c2ccc(C(=O)NCc3ccco3)cc2C1=O (stereo not drawn) | inconclusive [inhibitor, single point] | 
CCS(=O)(=O)N1CCc2cc(C(=O)Nc3cccc(C(C)=O)c3)ccc21 | active: 18.4 µM | 
CCOC(=O)C1CCCN(C2CC(=O)N(c3ccc(N4C(=O)CC(N5CCCC(C(=O)OCC)C5)C4=O)cc3)C2=O)C1 (stereo not drawn) | inconclusive [inhibitor, single point] | 
COc1ccccc1NC(=O)Nc1nc(C(N)CC(C)C)cs1 (stereo not drawn) | active: 0.259 µM | 
CC1=C(C(=O)Nc2ccccc2C(=O)NC2CCCCC2C)SCCO1 (stereo not drawn) | inconclusive [inhibitor, partial curve] | 
Cc1ccc2[nH]cc(/C=C/c3cc[n+](C)cc3)c2c1 | active: 2.59 µM | 

Compound | Potency | activity change, negative = growth inhibition
CC(OC(=O)c1cccc(O)c1)C(=O)N(C)Cc1ccccc1 (stereo not drawn) |  | inactive: -8.1%
Cc1nc(C)c(CC(=O)N/N=C/c2ccc(O)cc2)c(=O)[nH]1 |  | inactive: -0.972%
Cn1c(=O)n(CC(=O)O)c(=O)c2c1nc1n2CCCN1CCc1ccccc1 |  | inactive: 0.475%
Cc1cc(Cl)ccc1OCC(=O)NCCOc1nc(N2CCCCC2)nc(N2CCOCC2)n1 | active: 6.51 µM | 
CC1(Oc2ccc(Cl)cc2)CCN(Cc2cccn2-c2nccs2)C1 (stereo not drawn) | inconclusive [inhibitor, single point] | 
O=C(Nc1cccc([N+](=O)[O-])c1)C1CC(=O)N(C2CCCCC2)C1 (stereo not drawn) |  | inactive: -26%
CCN(CC)S(=O)(=O)c1ccc(/C=C/C(=O)OCC(=O)NCc2cccs2)cc1 | inconclusive [inhibitor, single point] | 
C#CC[N+]1(CC#Cc2cccc3ccccc23)CCOCC1 | inconclusive [inhibitor, single point] | 
O=C(Nc1ncc2c(n1)CC(c1ccc(Cl)cc1)CC2=O)c1ccco1 (stereo not drawn) | inconclusive [inhibitor, single point] | 
COc1cccc(CN(C)C(=O)c2ccc(C)c(S(=O)(=O)N3CCCCC3)c2)c1 | inconclusive [inhibitor, single point] | 
O=C1C(=Cc2ccccc2Cl)CCc2ccccc21 | inconclusive [inhibitor, partial curve, poor fit] | 
CCCCN(CCCNC(=O)Cn1nc(CC)n2c(cc3sc(C)cc32)c1=O)Cc1ccccc1 | inconclusive [inhibitor, single point] | 
COc1ccc(-c2cc(C(=O)OCC(=O)N(C)C)c3ccccc3n2)cc1 | inconclusive [inhibitor, single point] | 
CC(Sc1n[nH]c(N)n1)C(=O)C12CC3CC(CC(C3)C1)C2 (stereo not drawn) |  | inactive: -23.8%
CCNC(=O)C1(C)CCN(C(=O)c2ccc(-c3ccccc3)cc2)C1 (stereo not drawn) | inconclusive [inhibitor, single point] | 
O=C(/C=C/c1ccccc1)c1ccccn1 | active: 16.4 µM | 
Cc1[nH]nc(-c2ccc(O)cc2O)c1-c1nc2ccccc2s1 | inconclusive [inhibitor, single point] | 
Cc1ccc(C)c(N2CCN(C(=O)CCCCn3c(=O)[nH]c4ccccc4c3=O)CC2)c1 | active: 20.6 µM | 
O=C(CSc1nc(-c2ccco2)cc(C(F)(F)F)n1)Nc1ccccc1C(F)(F)F | inconclusive [inhibitor, single point] | 
COc1cc2[nH]c(C(=O)NCc3ccccc3)cc2c(OC)c1OC | inconclusive [inhibitor, single point] | 
O=[N+]([O-])c1cc(S(=O)(=O)N2CCOCC2)ccc1N1CCNCC1 | inconclusive [inhibitor, single point] | 
C=C1C(=O)[C@]23C[C@H]1CCC2[C@@]1(C)C(C[C@@H]3O)[C@](C)(C(=O)OC)CC[C@@H]1OC(C)=O (stereo partly drawn) | active: 0.92 µM | 
Cc1nn(-c2ccccc2)c2c1C(c1ccccc1)C(C#N)=C(N)O2 (stereo not drawn) | inconclusive [inhibitor, single point] | 

Compound | Potency | activity change, negative = growth inhibition
Cc1[nH]c2ccccc2c1/C=C/c1nccc2ccccc12 | inconclusive [inhibitor, full curve, poor fit] | 
Cc1c(NC(=O)c2ncn[nH]2)cccc1-c1nc2ccccc2s1 | inconclusive [inhibitor, partial curve, poor fit] | 
CC(C(=O)N1CCN=C1c1ccccc1)N1C(=O)c2ccccc2C1=O (stereo not drawn) |  | inactive: 2.56%
COc1ccc(C2C=CC(=O)CC2)c(OC)c1 (stereo not drawn) | inconclusive [inhibitor, single point] | 
CC1CCc2c(sc(NC(=O)CCCn3cnc([N+](=O)[O-])n3)c2C(N)=O)C1 (stereo not drawn) | inconclusive [inhibitor, single point] | 
COc1ccccc1CNc1ncnc2ccc(-c3ccccc3OC)cc12 | inconclusive [inhibitor, single point] | 
CC(=O)Oc1ccc(OC(C)=O)c(SCCCCCN2CCOCC2)c1 | active: 3.66 µM | 
CN1CCN(C(=O)c2ccc3c(c2)NC(=O)/C(=C/c2ccccc2)S3)CC1 | inconclusive [inhibitor, single point] | 
CCOc1cc(CNCCCN2CCOCC2)cc(Br)c1OCc1ccccc1Cl | active: 4.61 µM | 
CCCNC(=O)C1Cc2cc(S(=O)(=O)N3CCCCCC3)ccc2N1C(C)=O (stereo not drawn) |  | inactive: -12.2%
CCCNC(=O)Cn1c(=O)c2cccn2c2cccnc21 |  | inactive: -6.44%
COc1cc(/C=N/Nc2nn3cnnc3c3ccccc23)ccc1O | inconclusive [inhibitor, partial curve] | 
Cc1c(C(=O)N(Cc2ccccc2)C(C)C)cnn1-c1ccccc1 | inconclusive [inhibitor, single point] | 
CN(C)CC#CCOC(c1ccccc1)c1ccccc1 | inconclusive [inhibitor, single point] | 
COc1ccccc1OCCOc1ccc(/C=C2\C(=N)N3N=C(S(C)(=O)=O)SC3=NC2=O)cc1 | active: 23.1 µM | 
O=C1CC2(CCN(C(=O)COc3ccccc3F)CC2)Oc2ccccc21 | inconclusive [inhibitor, single point] | 
CC(C)OCCCNC(=O)C(Cc1ccccc1)NS(=O)(=O)c1ccc2c(c1)CCC(=O)N2 (stereo not drawn) |  | inactive: 16.9%
CCCn1cnc2cc(NCc3ccccc3OCC)ccc21 | inconclusive [inhibitor, single point] | 
O=C(Nc1ccccc1)c1cccc2c(-c3cccnc3)coc12 | active: 14.6 µM | 
COc1cc(C(=O)OCC(=O)Nc2ccc(OC(F)F)cc2)cc(OC)c1OC | inconclusive [inhibitor, single point] | 
CC(=O)c1cccc(NC(=O)Nc2ccc3c(c2)CCC3)c1 |  | inactive: -12.9%
CCc1ccc2oc(-c3ccc(NC(=O)c4cc5ccccc5o4)cc3)nc2c1 | inconclusive [inhibitor, partial curve, poor fit] | 
